Results on 27 compounds are retold here after article PMC6919601, “Identification of Plasmodium dipeptidyl aminopeptidase allosteric inhibitors by high throughput screening” (PLoS ONE, 2019).

About 230 (0.21%) of roughly 110,000 compounds showed an effect of 50% or more. The list shows a part of the results.
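Also: 30 min substrate incubation versus DMSO and 10 µM JCP410 controls.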

Chain of DPAP1 (Q8IIJ9 whole entry, looked up): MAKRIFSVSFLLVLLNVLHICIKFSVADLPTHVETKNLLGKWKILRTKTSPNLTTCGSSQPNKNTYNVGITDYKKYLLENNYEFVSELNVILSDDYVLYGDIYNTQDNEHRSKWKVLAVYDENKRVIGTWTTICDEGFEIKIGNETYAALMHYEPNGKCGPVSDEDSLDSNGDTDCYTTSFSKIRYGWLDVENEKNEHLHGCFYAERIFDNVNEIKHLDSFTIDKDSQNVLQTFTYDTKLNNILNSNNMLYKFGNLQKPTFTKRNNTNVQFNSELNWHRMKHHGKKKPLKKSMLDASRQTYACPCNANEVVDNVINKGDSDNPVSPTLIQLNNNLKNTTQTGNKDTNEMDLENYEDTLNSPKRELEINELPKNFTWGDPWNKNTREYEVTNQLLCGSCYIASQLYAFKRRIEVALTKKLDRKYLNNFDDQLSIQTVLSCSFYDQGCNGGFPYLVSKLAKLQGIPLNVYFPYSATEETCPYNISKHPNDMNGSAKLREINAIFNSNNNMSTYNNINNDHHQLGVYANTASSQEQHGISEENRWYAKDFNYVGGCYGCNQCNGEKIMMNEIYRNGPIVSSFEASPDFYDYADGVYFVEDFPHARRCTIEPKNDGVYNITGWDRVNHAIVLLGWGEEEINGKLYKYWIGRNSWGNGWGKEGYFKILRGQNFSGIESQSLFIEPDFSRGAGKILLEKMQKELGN

The assay has as its target DPAP1 (Plasmodium falciparum, UniProt Q8IIJ9). The experiment in a line: primary screen, percent inhibition; read by cleavage of a fluorogenic dipeptide substrate; higher = more effect of the substance. More on the design: species or system P. falciparum D10 trophozoite lysates; single well.
On to `CCN(Cc1ccccc1)C1CCN(Cc2ccccc2)CC1`, for which the “% Inhibition @ 10 uM” value is -2.18%.
As to `CC(=O)Nc1ccc(S(=O)(=O)N[C@@H](CC(C)C)C(=O)NCC#N)cc1`, the “% Inhibition @ 10 uM” value was 0.174%.
Regarding `O=C1c2ccccc2[C@@H]2[C@H]3CCCC[C@]3(O)CCN12`, the “% Inhibition @ 10 uM” value was -1.8%.
For the compound `COc1ccc(Nc2ccc(C(=O)O)cc2[N+](=O)[O-])cc1`, the “% Inhibition @ 10 uM” value was -0.0372%.
For `Cc1cc(C)nc(SCC(=O)Nc2nc3c(s2)C(=O)CC(C)(C)C3)n1`, the “% Inhibition @ 10 uM” value was found to be 3.86%.
Consider `NS(=O)(=O)c1ccc(CCNC(=O)CCCCCn2c(=O)[nH]c3ccsc3c2=O)cc1`, for which the “% Inhibition @ 10 uM” value was -2.49%.
As for `Cc1cc(Cl)ccc1N1C(=O)C2C3C=CC(C3)C2C1=O` (stereo not drawn), the “% Inhibition @ 10 uM” value is -4.13%.
`COc1ccc(C=C(C#N)C#N)c(OC)c1OC`: the “% Inhibition @ 10 uM” value is on record as 0.0345%.
`CC(C)(C)C(=O)NC(=S)Nc1ccc(Br)cc1`: the “% Inhibition @ 10 uM” value came out at 1.43%.
Then `N#CC1=C(N)OC2=C(C(=O)CC(c3ccco3)C2)C1c1ccc(OCc2ccccc2F)cc1` (stereo not drawn), with 2.32%; and `CC(C)c1cc(C(C)C)c(S(=O)(=O)N2CCN(C/C=C/c3ccccc3)CC2)c(C(C)C)c1`, with 4.57%.
For `O=C1c2ccccc2NC(c2ccc(Br)cc2)N1c1ccc(Br)cc1` (stereo not drawn), the “% Inhibition @ 10 uM” value is given as -1.5%.
Turning to `COc1ccc(C2OC(=O)CC2C(=O)NCc2ccc(C)cc2)cc1OC` (stereo not drawn), the “% Inhibition @ 10 uM” value was -4.69%.
Consider `Cn1c(=O)c2ncn(CC(=O)Nc3nc(-c4ccc(Cl)cc4)cs3)c2n(C)c1=O`, for which the “% Inhibition @ 10 uM” value is 11.1%.
Consider `Cc1noc(NS(=O)(=O)c2ccc(N3C(=O)c4ccccc4C3=O)cc2)c1C`, for which the “% Inhibition @ 10 uM” value is 5.26%.
For the compound `O=C(NCCc1ccc2c(c1)OCO2)c1cccc2ccccc12`, the “% Inhibition @ 10 uM” value is -3.37%.
Consider `O=C(NCCc1ccc(Cl)cc1)C1CCCN(c2nc3ccccc3n3cccc23)C1` (stereo not drawn), for which the “% Inhibition @ 10 uM” value is on record as 7.34%.
Then `COc1cccc(C2CC(=O)Nc3c2ccc2ccccc32)c1OC` (stereo not drawn), with -3.09%; and `COc1ccc(C2C3C(=NN2C(C)=O)C2CCN3CC2)cc1` (stereo not drawn), with -0.902%; and `CN(C)c1ccc(-c2c(C#N)c(S)nc3c2C(=O)CC(C)(C)C3)cc1`, with -2.81%.
For the compound `CC(C)(C)OC(=O)N[C@@H](Cc1cc(I)cc(I)c1)C(=O)NCC#N`, the “% Inhibition @ 10 uM” value is given as 1.7%.
On to `CC(C)C1Oc2cc3oc(=O)ccc3cc2C1=O` (stereo not drawn), for which the “% Inhibition @ 10 uM” value stood at 2.13%.
Next, `CS(=O)(=O)N(CCc1ccccc1)CC(=O)Nc1ccccc1`: -0.318%; `CCOc1ccc(C(=O)Nc2ccc(N3CCN(C)CC3)cc2)cc1Br`: 6.1%.
As to `COc1ccc(/C=C/C(=O)NC(c2ccccc2)c2ccccc2)cc1`, the “% Inhibition @ 10 uM” value was -4.5%.
As for `CC1(C)CC(CCN2C(=O)CCC2=O)(Cc2ccccc2)CCO1` (stereo not drawn), the “% Inhibition @ 10 uM” value is 0.343%.
In the case of `CCOc1ccc(CNC(=O)CN(C)c2nn3c(=O)cc(C)nc3s2)cc1`, the “% Inhibition @ 10 uM” value is recorded as -3.79%.
